According to PMC13083723 (Patterns, 2026):
In all, about 5,400 compounds went through this assay and about 190 (3.5%) showed an effect of 50% or more. Some of the results follow.

test system: Vero-E6; assay: primary screen, phospholipidosis by LipidTOX staining; higher = more effect of the substance; details: 10 µM
Procedure, shortened: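 Single-concentration screen at 10 μM, with DMSO 0.1 v/v % and amiodarone 10 μM as controls. Read-out is LipidTOX Red phospholipid staining, which tolerates aldehyde fixation, in Vero-E6 cells.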

Structure (SMILES)	result_ITMP
CCOC(=O)C1=C(C)NC(C)=C(C(=O)OC)C1c1cccc(Cl)c1Cl (stereo not shown)	8.19%
C(=C\c1ccccc1)/CN1CCN(CCOC(c2ccccc2)c2ccccc2)CC1	7.08%
C=C1C(=O)[C@@]23C(CC[C@@H]1[C@H]2O)[C@@]12CO[C@]3(O)[C@@H](O)[C@@H]1C(C)(C)CC[C@@H]2O (stereo partly shown)	3.95%
CO[C@H]1C[C@H](O[C@@H]2/C(C)=C/C[C@@H]3C[C@@H](C[C@]4(CC[C@H](C)[C@@H](C5CCCCC5)O4)O3)OC(=O)[C@@H]3C=C(C)/C(=N/O)[C@H]4OC/C(=C\C=C\[C@@H]2C)[C@]43O)O[C@@H](C)[C@@H]1O	-3.99%
CN1CCN(Cc2ccc(-c3cnc4[nH]cc(-c5ccc6[nH]ccc6c5)c4c3)cc2)CC1	-0.11%
O=C(Nc1ccc2c(O)cc(S(=O)(=O)[O-])cc2c1)Nc1ccc2c(O)cc(S(=O)(=O)[O-])cc2c1	-7.47%
O=C(Nc1ccccc1)N[C@H]1C[C@H](C(=O)O)Nc2cc(Cl)cc(Cl)c21	-2.19%
O=C1c2c(O)ccc(O)c2C(=O)c2c(NCCNCCO)ccc(NCCNCCO)c21	-15.3%
CCOC(=O)c1ccc(NC2CCCCC2)c(N)c1	-2.75%
CC(=O)O[C@H]1C[C@@H]2CC[C@@H]3[C@H](CC[C@@]4(C)[C@H]3C[C@H]([N+]3(C)CCCCC3)[C@@H]4OC(C)=O)[C@@]2(C)C[C@@H]1[N+]1(C)CCCCC1	-1.37%
O=C(NC(Cc1cc(=O)[nH]c2ccccc12)C(=O)O)c1ccc(Cl)cc1 (stereo not shown)	1.81%
CC(C)c1cc(C(C)C)c(CC(=O)NS(=O)(=O)Oc2c(C(C)C)cccc2C(C)C)c(C(C)C)c1	-7%
CC(C)(C)NC[C@H](O)COc1cccc2c1CCCC2=O	-3.94%
COc1ccc(S(=O)(=O)N2CCCN(S(=O)(=O)c3ccc(OC)c(OC)c3)CC2)cc1OC	-6.24%
O=C(NNc1nc2cc(F)ccc2n2cccc12)c1cnccn1	-1.48%
C[N+](C)(C)CCOC(N)=O	-0.88%
CC(C)c1cc(CNc2nc(Nc3cc(C4CC4)[nH]n3)cc(N3CCN(C)CC3)n2)on1	20%
Cc1nn(C)c2c1C(c1cccc(Cl)c1)=NCCN2	-1.14%
COC(=O)/C=C/C(=O)OC	-6.83%
COc1ccc(-c2oc3cc(OC)ccc3c2C(=O)c2ccc(C#N)cc2)cc1	0.44%
CCc1ccc(OCc2ccccc2C(=O)Nc2ccc3nc(C)cc(N)c3c2)cc1	-10.1%
CN(C)CCc1c[nH]c2ccc(CS(=O)(=O)N3CCCC3)cc12	-4.05%
